Data published in PubChem BioAssay AID204 (DTP/NCI, 2004).
Toxic doses and inconclusive results are not listed. For part of its entries the source gives two or more results. The other results are left out here. There may be further records. The records of an entry repeat one measurement across runs, samples, wells, individuals or studies.

Tested on: BDF1 mice, P288 methotrexate-resistant leukemia, survival T/C
Test: NCI In Vivo Anticancer Drug Screen. Data for tumor model P288 Lymphocytic Leukemia resistant to methotrexate; NSC 740 (intraperitoneal) in B6D2F1 (BDF1) mice
Conditions: endpoint: median survival time, schedule: Q01DX010 (ip), higher = longer survival
Protocol: The antitumor activity of compounds was measured in mice bearing transplantable tumors. Survival or tumor size were measured and the results are expressed as the measurement made in the treated group (T) divided by the measurement made in the vehicle treated control group (C). The tumor model used in this assay is P288 Lymphocytic Leukemia resistant to methotrexate; NSC 740 (intraperitoneal) in B6D2F1 (BDF1) mice

## O[C@H](CN1CC1)[C@@H](O)CN1CC1
dose: 125.0 micrograms/kg/injection, vehicle: saline
  T/C: 113 % of control and 159 % of control
dose: 500.0 micrograms/kg/injection, vehicle: saline
  T/C: 109 % of control, 153 % of control, 160 % of control

## C=CC(CN1CC1)OC(C)=O (stereo unspecified)
dose: 8.0 mg/kg/injection, vehicle: saline
  T/C: 122 % of control and 150 % of control

## C1CN1c1nc(N2CC2)nc(N2CC2)n1
dose: 0.5 mg/kg/injection, vehicle: saline
  T/C: 100 % of control and 155 % of control

## NC(Cc1ccc(N(CCCl)CCCl)cc1)C(=O)O (stereo unspecified)
dose: 2.5 mg/kg/injection, vehicle: saline
  T/C: 113 % of control and 150 % of control

## Nc1nc(=S)c2[nH]cnc2[nH]1
dose: 10.0 mg/kg/injection, vehicle: other
  T/C: 122 % of control and 150 % of control
